# Experimental data taken from US20060177456A1 (Genentech, published 2006).
# T1: Fas/Apo-1 ligand (Alexis Biochemicals) (UniProt P48023 103-281, limits assumed)
# T1 construct: also called Fas ligand; CD95 ligand
# T1 sequence (looked up): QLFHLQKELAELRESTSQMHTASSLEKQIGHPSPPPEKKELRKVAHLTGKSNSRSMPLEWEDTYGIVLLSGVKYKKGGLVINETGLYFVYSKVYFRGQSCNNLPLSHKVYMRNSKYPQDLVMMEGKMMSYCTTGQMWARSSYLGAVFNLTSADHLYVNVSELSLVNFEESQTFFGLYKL
# T2: lymphotoxin-alpha (Genentech, Inc.) (UniProt P01374 35-205, limits assumed)
# T2 construct: also called TNF-beta
# T2 sequence (looked up): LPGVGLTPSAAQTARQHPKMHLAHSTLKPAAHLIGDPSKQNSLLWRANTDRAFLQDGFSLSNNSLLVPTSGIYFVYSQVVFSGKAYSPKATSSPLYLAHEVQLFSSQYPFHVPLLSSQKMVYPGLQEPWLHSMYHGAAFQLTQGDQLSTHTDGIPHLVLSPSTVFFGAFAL
# B1: Apo-2 ECD-Flag (soluble Apo-2 extracellular domain, amino acid residues 1-184 of FIG. 1, fused to a C-terminal Flag epitope tag) (receptor, not shown: small tags and cut ends)
# chain: not shown
# notes: Expressed in human 293 cells; Construct is residues 1-184; Residues 183-184 are predicted transmembrane residues kept for flexibility; also called soluble Apo-2 ECD
# Assays:
# Experiment in all cases: BIACORE
# [1] = target: T1, Fas/Apo-1 ligand (Alexis Biochemicals)
# [2] = target: T3, TNF-alpha (Genentech, Inc.) (UniProt P01375 fragment)
# T3 construct: also called tumor necrosis factor-alpha
# T3 sequence (P01375 77-233 limits assumed): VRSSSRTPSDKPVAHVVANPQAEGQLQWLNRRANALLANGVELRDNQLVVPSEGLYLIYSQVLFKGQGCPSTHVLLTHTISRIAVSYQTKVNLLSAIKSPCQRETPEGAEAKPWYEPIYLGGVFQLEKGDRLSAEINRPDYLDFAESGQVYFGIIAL
# [3] = target: T4, soluble poly-histidine-tagged Apo-2 ligand (amino acids 114-281) (UniProt P50591 114-281)
# T4 construct: Prepared as in Pitti et al. and WO 97/25428; also called TRAIL; soluble His-tagged Apo-2L; not shown: poly-histidine tag
# T4 sequence (P50591 114-281 limits assumed): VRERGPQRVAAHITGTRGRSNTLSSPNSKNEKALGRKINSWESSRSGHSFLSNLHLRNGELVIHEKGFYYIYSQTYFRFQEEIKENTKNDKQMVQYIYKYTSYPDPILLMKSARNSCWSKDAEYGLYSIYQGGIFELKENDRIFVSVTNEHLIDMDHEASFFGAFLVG
# [4] = target: T2, lymphotoxin-alpha (Genentech, Inc.)
binder,measurement,setting,value
B1,binding result,[1],no binding
same,binding result,[2],no binding
same,Kd,[3],~1 nM
same,binding result,[4],no binding
